# According to article PMC11506774 (Biomolecules, 2024):
# Tested on: Echo 30/WZ16
# Assay: Infectivity-based thermostability assay
# Assay type: cell-based
# Conditions: virus co-incubated with equal volume of peptide at 62.5 µg/mL, 37 °C 15 min and 45 °C 2 min
# Protocol: The enterovirus (10^4–10^6 TCID50/100 µL) was incubated with an equal volume of the peptide at a final concentration of 62.5 µg/mL at 37 °C for 15 min and 43–48 °C for 2 min, followed by rapid cooling on ice. Subsequently, 46 µL of the mixture were diluted using 100 µL DMEM to achieve a continuous 0.5 Log10 dilution and added to the RD cells. After a 24-h infection, the CPE was stained using crystal violet and observed. Virus titers were determined in terms of the mean TCID50 per 100 µL by the detection of CPE on the cells. The experiment was repeated with at least two independent biological replicates for each measurement.
smiles,measurement,value
CC[C@H](C)[C@H](NC(=O)[C@H](Cc1c[nH]cn1)NC(=O)[C@H](CCCCN)NC(=O)[C@@H]1CCCN1C(=O)[C@H](CCCCN)NC(=O)[C@H](CCSC)NC(=O)[C@H](Cc1ccc(O)cc1)NC(=O)[C@@H](NC(=O)[C@H](CCCNC(=N)N)NC(=O)[C@@H](NC(=O)[C@@H](NC(=O)[C@@H](NC(=O)[C@@H](NC(=O)[C@H](Cc1ccccc1)NC(=O)CNC(=O)[C@@H](NC(=O)[C@@H]1CCCN1C(=O)[C@H](CCC(N)=O)NC(=O)[C@@H](N)Cc1c[nH]cn1)C(C)C)[C@@H](C)O)C(C)C)[C@@H](C)O)C(C)C)C(C)C)C(=O)N[C@@H](CCCCN)C(=O)O [Peptide P25.9],Retention of infectivity of Echo 30/WZ16 after heating,retained the infectivity
